Results taken from PubChem BioAssay AID686979 (National Center for Advancing Translational Sciences (NCATS), 2013).
The campaign covered roughly 420,000 compounds. About 50,000 (12%) were called active. Inconclusive results, whose numbers are uncertain, are shown with a selection of clear calls. The call rests on the fitted dose curve; in most records, active means well fitted inhibition curve with a large enough effect; inconclusive means small, poorly fitted or top-dose-only effect; inactive means flat fitted curve, though single readings scatter. Potencies of inconclusive entries are left out as doubtful fits.
On the % scale 0 is the no-effect control and ±100 the full control effect; potency means the concentration at half of the fitted maximal effect; tags describe the fitted curve by direction and shape.

Experiment: qHTS for Inhibitors of human tyrosyl-DNA phosphodiesterase 1 (TDP1): qHTS in cells in presence of CPT; further: nearly all actives have a fitted effect of over 55% in size
Details: chicken DT40 Tdp1-/-;hTDP1 cells + 20 nM CPT, ATP luminescence, 48 h; activity change, negative = growth inhibition: at 46.2 µM (top of the series) unless noted
How it was run: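 Chicken DT40 Tdp1-/- cells complemented with human TDP1, 400 cells/well, exposed to compounds plus 20 nM camptothecin for at least 48 h at 37 C; viability read as ATP content by CellTiter-Glo luminescence.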
In the case of `CC(=O)O[C@H]1CC(=O)OC(C)(C)C2CC(=O)[C@]3(C)C(CC[C@@](C)([C@@H](O[C@@H]4O[C@H](CO)[C@@H](O)[C@H](O)[C@H]4O)c4ccoc4)[C@@]34O[C@@H]4C(=O)O)[C@]21C` (some centres not stated), the Potency is reported as “inactive”. In the case of `CCOC(=O)N1CCN(c2c(NCc3ccccc3OC)c(=O)c2=O)CC1`, the activity change, negative = growth inhibition is reported as inconclusive: -31.7% [inhibitor]. For `CCCCC1=CC2=CC(=O)C(C)(OC(=O)CC)C(=O)C2=CN1CCc1c[nH]c2ccccc12` (configuration not stated), the Potency was inconclusive [inhibitor, single point]. For `Cc1ccc(C(=O)N2N=C(c3cccc(NS(C)(=O)=O)c3)CC2c2cccs2)cc1` (configuration not stated), the Potency was inconclusive [inhibitor, single point]. With `O=C(CSc1ccc(-c2cccs2)nn1)N1CCCCCC1` the Potency was inconclusive [inhibitor, partial curve]. For `COC(=O)c1sccc1NC(=O)c1ccc(Cl)cc1`, the Potency was “inactive”. With `CN(C)Cc1ccc(F)cc1Sc1ccc(Cl)cc1Cl` the Potency was inconclusive [inhibitor, single point]. In the case of `COc1ccc([C@@H]2CC=C(C(=O)O)[C@H](c3ccccc3F)N2S(=O)(=O)c2ccccc2C)cc1`, the Potency is reported as “inactive”. With `Cc1ccc(C)c(-n2cc(CN3CCN(C(=O)c4ncn[nH]4)CC3)c(-c3ccccc3)n2)c1` the Potency was “inactive”. In the case of `Cc1c(Cl)cccc1NC(=O)N1CCCN(c2nc(-c3ccccc3)ns2)CC1`, the Potency is reported as inconclusive [inhibitor, single point]. In the case of `O=C(C1CCC1)N1CCc2cc(S(=O)(=O)NCCc3ccccc3)ccc21`, the Potency is reported as inconclusive [inhibitor, partial curve]. With `CCCn1c(C2CCCN2c2nc(-c3ccc(OC)cc3)cs2)nc2ccccc21` (configuration not stated) the Potency was inconclusive [inhibitor, single point]. In the case of `O=C(CSc1nc2ncc(Cl)cc2[nH]1)NCC(=O)Nc1ccc(F)c(F)c1F`, the Potency is reported as “inactive”. For `COc1ccc(Cl)c2sc(N(CCN(C)C)C(=O)c3ccc4c(c3)OCCO4)nc12`, the Potency was inconclusive [inhibitor, single point]. For `CC1=C(C(=O)OC(C)C)C2(O)C(=O)c3ccccc3C2(O)N1` (configuration not stated), the Potency was “inactive”. With `CC(C)OP(=O)(OC(C)C)C1(NS(=O)(=O)c2ccc(Cl)cc2)C=C(Cl)C(=O)C(Cl)=C1` the Potency was inconclusive [inhibitor, single point]. With `COc1ccc(N(C(=O)/C=C/C(=O)Nc2cc(C)on2)C(C(=O)NC2CCCC2)c2ccccc2C)cc1` (configuration not stated) the Potency was inconclusive [inhibitor, single point]. For `COc1ccc(-c2ccc(C(=O)C3CC3)cc2)cc1`, the Potency was “inactive”. In the case of `Cc1nn(-c2ccc(N3CCCC3)nn2)c(C)c1CCC(=O)N1CCN(c2ccccc2F)CC1`, the Potency is reported as inconclusive [inhibitor, single point]. In the case of `O=C1NC(CCc2ccccc2)C(=O)N1Cc1ccccc1Cl` (configuration not stated), the Potency is reported as inconclusive [inhibitor, single point]. With `CC1(C)CC2(CC(c3ccccc3)Oc3cc(O)ccc32)NC(=S)N1` (configuration not stated) the Potency was active: 20.6 µM. With `CCOc1ccc(CCNC(=O)CN2C(=O)COc3ccc(S(=O)(=O)N4CCCC4)cc32)cc1` the Potency was inconclusive [inhibitor, single point]. With `CN(c1ccccc1)S(=O)(=O)c1cccc(NC(=O)c2cccc(C#N)c2)c1` the Potency was inconclusive [inhibitor, single point]. With `NC(=O)COc1ccc(/C=N\NC(=O)c2ccc(-c3ccccc3)cc2)cc1` the Potency was “inactive”. In the case of `COc1ccc(C(=O)Nc2cc3c(cc2N2CCCCC2)n(C)c(=O)n3C)cc1OC`, the Potency is reported as inconclusive [inhibitor, single point]. For `COc1ccc(N=C2SC(CC(=O)Nc3ccccc3)C(=O)N2Cc2ccccn2)cc1` (configuration not stated), the Potency was active: 29.1 µM. In the case of `Cc1ccc(NC(=O)CCC(=O)N2Cc3ccccc3Oc3ncccc32)c(C)c1`, the Potency is reported as inconclusive [inhibitor, single point]. In the case of `CCN(CC(=O)Nc1ccc(OC)cc1)C(=O)c1ccc([N+](=O)[O-])cc1`, the Potency is reported as inconclusive [inhibitor, single point]. For `CC(C)Cc1nnc(NC(=O)C2CCCN(C(=O)c3ccc(Cl)cc3)C2)s1` (configuration not stated), the Potency was inconclusive [inhibitor, single point]. In the case of `Cc1ccc(C(C)C)c(OCC(O)CN2CCN(c3ccccc3F)CC2)c1` (configuration not stated), the Potency is reported as inconclusive [inhibitor, single point]. With `COc1ccc(Cl)cc1S(=O)(=O)NCc1ccc2c(c1)CCN2C(=O)c1cccc(C)c1` the Potency was active: 3.26 µM. In the case of `Cc1ccc(-c2nc(CS(=O)(=O)CC(=O)NC3CCC(C)CC3)c(C)o2)cc1` (configuration not stated), the Potency is reported as inconclusive [inhibitor, single point]. In the case of `O=C(Cc1ccccc1)NNC(=S)NC(=O)c1cccs1`, the Potency is reported as inconclusive [inhibitor, single point]. With `Cc1ccc2[nH]c(=O)c(CN(Cc3ccc4c(c3)OCO4)Cc3nnnn3C3CCCC3)cc2c1` the Potency was inconclusive [inhibitor, single point]. For `O=S(=O)(NCc1c(Cl)cccc1Oc1ccccc1)c1ccc(F)cc1`, the Potency was inconclusive [inhibitor, single point]. In the case of `O=C(/C=C/c1c(Cl)cccc1Cl)n1cccn1`, the Potency is reported as inconclusive [inhibitor, single point]. For `Cc1[nH]nc2c1C(C1CC=CCC1)C(C#N)=C(N)O2` (configuration not stated), the Potency was active: 20.6 µM. In the case of `CCn1c(=N)c(C(=O)NCc2ccccc2)cc2c(=O)n3cccc(C)c3nc21`, the Potency is reported as “inactive”. For `Cc1ccccc1NC(=O)CSc1nc2ccccc2c2nc(CCn3cncc3C)nn12`, the Potency was “inactive”. With `CCOC(=O)c1cccc(NC(=O)CN(c2ccc(C)cc2)S(=O)(=O)c2c(C)n[nH]c2C)c1` the Potency was inconclusive [inhibitor, partial curve]. In the case of `Cc1cccc(S(=O)(=O)N2CCn3cccc3C2C)c1` (configuration not stated), the Potency is reported as “inactive”. With `COc1ccc(CC(=O)NCc2nnc(SCC(=O)Nc3ncc(C)s3)n2C)cc1` the Potency was active: 16.4 µM. For `CN(C)c1ccc(-c2ccnc3c2CC(C)(C(=O)NCc2ccc(F)c(F)c2)O3)cc1` (configuration not stated), the Potency was active: 9.2 µM. With `CCn1c(C(=O)N2CCC(C(=O)NCCc3ccc(C)cc3)CC2)cc2sccc21` the Potency was active: 16.4 µM. With `COc1ccc(NC(=O)CCc2c(C)nn(-c3ccc(N4CCCCC4)nn3)c2C)cc1Cl` the Potency was inconclusive [inhibitor, single point]. With `Cn1c(COc2ccccc2)nnc1SCCSc1nnc(COc2ccccc2)n1C` the Potency was inconclusive [inhibitor, single point]. With `CN1C(=O)C(C)(C)c2cc(S(=O)(=O)N3CCCC3C(=O)NCc3ccccc3Cl)ccc21` (configuration not stated) the Potency was inconclusive [inhibitor, single point]. For `Cc1oc(-c2ccc(C(=O)NCc3cccc(F)c3)cc2)nc1COc1ccccc1`, the Potency was “inactive”. In the case of `CCCc1cc(-n2ccnc2C)n2c(nc3ccccc32)c1C#N`, the Potency is reported as inconclusive [inhibitor, single point]. For `CC1CCN(CCOCCOc2ccccc2-c2ccccc2)CC1`, the Potency was active: 23.1 µM. With `COCCCNC(=O)c1ccc(-c2nc(CS(=O)(=O)c3ccc(C)cc3)c(C)o2)cc1` the Potency was inconclusive [inhibitor, single point]. With `CC(=O)c1c(C)[nH]c(C(=O)OCc2nc3ccsc3c(=O)[nH]2)c1C` the Potency was inconclusive [inhibitor, single point]. For `CCOc1ccc(S(=O)(=O)Nc2ccc(C(=O)NN)cc2)cc1`, the Potency was inconclusive [inhibitor, partial curve]. In the case of `CCOC(=O)c1ccc(N2C(=O)c3n[nH]c(-c4ccco4)c3C2c2cccc(OC)c2)cc1` (configuration not stated), the Potency is reported as active: 23.1 µM. In the case of `COc1ccc(-c2c(-c3cc(OC)cc(OC)c3)n(C)c3ccc(-c4ccc5[nH]ccc5c4)cc23)cc1`, the Potency is reported as “inactive”. With `NC(=O)CC(NC(=O)c1ccc(Br)cc1)c1ccc(NCc2ccc(F)cc2)c([N+](=O)[O-])c1` (configuration not stated) the Potency was inconclusive [inhibitor, single point]. In the case of `C#CCNC(=O)C[C@@H]1C[C@@]2(C(=O)OCC)CCC=C2N(Cc2cccc3ccccc23)C1=O`, the Potency is reported as inconclusive [inhibitor, single point]. With `CCOC(=O)c1ccc(NC(=O)c2nc(SC)ncc2Cl)cc1` the Potency was “inactive”. In the case of `CCNc1ncc2nc(-c3cc(F)cc(F)c3)c(=O)n(-c3ccccc3)c2n1`, the Potency is reported as “inactive”. For `CCCn1nnc(NC(=S)NC(=O)/C=C/c2ccco2)n1`, the Potency was inconclusive [inhibitor, single point]. With `COc1ccc(CN2C(=O)CN(C3CCCCCC3)C(=O)C2c2ccc(F)cc2)cc1` (configuration not stated) the Potency was inconclusive [inhibitor, partial curve]. For `Cc1ccc(-c2noc(-c3ccccc3C(=O)NCc3ccco3)n2)cc1`, the Potency was inconclusive [inhibitor, single point]. For `COc1ccc(NC(=S)N2CCN(C(c3ccccc3)c3ccccc3)CC2)cc1OC`, the Potency was “inactive”. For `Cc1nc(C)c(C(=O)OCC(=O)NCc2ccccc2)s1`, the Potency was “inactive”. With `CCOC(=O)C1CCCN(C(=O)c2ccc3c(c2)sc2nc(-c4ccc(CC)cc4)cn23)C1` (configuration not stated) the Potency was active: 4.11 µM. With `Cc1ccc(CNC(=O)C(C)n2nc(C)n3c(cc4sccc43)c2=O)cc1` (configuration not stated) the Potency was “inactive”. For `CCc1nnc(NC(=O)C2c3ccccc3Oc3ccccc32)s1`, the Potency was inconclusive [inhibitor, single point].
